In article PMC6445129:
These are yes or no findings as the source states them, for the method shown. Some entries that bind do so weakly or less than the wild type. Tags and fused reporters may be left off the sequences shown.

Amino acid sequences for entries named in this document (tags omitted).
UniProt P12956: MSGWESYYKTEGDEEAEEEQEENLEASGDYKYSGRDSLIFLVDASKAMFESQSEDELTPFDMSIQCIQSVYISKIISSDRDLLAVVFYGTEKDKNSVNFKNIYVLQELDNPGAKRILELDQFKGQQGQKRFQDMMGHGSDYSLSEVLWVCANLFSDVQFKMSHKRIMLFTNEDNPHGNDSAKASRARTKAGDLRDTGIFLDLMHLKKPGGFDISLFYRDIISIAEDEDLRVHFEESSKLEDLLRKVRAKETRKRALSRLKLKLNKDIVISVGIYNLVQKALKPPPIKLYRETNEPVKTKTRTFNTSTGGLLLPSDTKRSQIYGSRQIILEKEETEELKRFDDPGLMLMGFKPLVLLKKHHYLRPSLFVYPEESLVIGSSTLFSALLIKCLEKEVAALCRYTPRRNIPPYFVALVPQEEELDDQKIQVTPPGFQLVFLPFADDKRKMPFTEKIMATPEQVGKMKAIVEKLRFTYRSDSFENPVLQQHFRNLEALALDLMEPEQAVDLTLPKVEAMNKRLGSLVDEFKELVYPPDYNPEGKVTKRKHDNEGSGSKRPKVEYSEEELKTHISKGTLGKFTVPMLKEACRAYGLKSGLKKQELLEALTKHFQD
UniProt P13010: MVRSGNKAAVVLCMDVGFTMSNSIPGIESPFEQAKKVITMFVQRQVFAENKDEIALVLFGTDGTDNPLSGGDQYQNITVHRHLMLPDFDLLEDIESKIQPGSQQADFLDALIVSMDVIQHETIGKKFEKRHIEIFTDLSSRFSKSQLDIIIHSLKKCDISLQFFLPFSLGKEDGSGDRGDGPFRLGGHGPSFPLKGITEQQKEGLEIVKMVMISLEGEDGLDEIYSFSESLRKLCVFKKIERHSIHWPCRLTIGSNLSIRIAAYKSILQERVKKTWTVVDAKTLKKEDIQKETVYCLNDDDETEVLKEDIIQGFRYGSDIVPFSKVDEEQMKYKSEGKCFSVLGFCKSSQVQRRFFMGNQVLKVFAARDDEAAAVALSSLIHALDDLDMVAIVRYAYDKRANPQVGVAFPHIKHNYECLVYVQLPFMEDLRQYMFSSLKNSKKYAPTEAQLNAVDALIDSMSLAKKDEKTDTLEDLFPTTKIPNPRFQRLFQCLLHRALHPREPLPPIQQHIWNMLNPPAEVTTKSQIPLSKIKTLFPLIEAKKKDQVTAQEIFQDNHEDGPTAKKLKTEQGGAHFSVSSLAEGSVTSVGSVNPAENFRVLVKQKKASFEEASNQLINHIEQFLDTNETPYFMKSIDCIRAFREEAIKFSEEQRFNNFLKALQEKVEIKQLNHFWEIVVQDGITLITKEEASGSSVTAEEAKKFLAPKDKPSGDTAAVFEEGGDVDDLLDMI

Key:
[1] = biological target: XRCC6 expressed in E. coli (human) (UniProt P12956); assay: far-Western, overlay or dot blot; XRCC5 and XRCC6 from E. coli particulate fractions resolved by SDS-PAGE, immobilised on nitrocellulose and renatured; probed 2 h at room temperature in HEPES buffer, 150 mM NaCl, 1% non-fat milk with bacterial extracts holding the GST probes; detected with goat anti-GST
[2] = biological target: XRCC5 expressed in E. coli (human) (UniProt P13010); assay: as above

binding [1] | binding [2] | Binder
binds | binds weakly | GST-CXXC-PHD-NLSR (domain or fragment, UniProt Q9Y2K7 561-733) VSGARRRRVRCRKCKACVQGECGVCHYCRDMKKFGGPGRMKQSCVLRQCLAPRLPHSVTCSLCGEVDQNEETQDFEKKLMECCICNEIVHPGCLQMDGEGLLNEELPNCWECPKCYQEDSSEKAQKRKMEESDEEAVQAKVLRPLRSCDEPLTPPPHSPTSMLQLIHDPVSPR
no binding | binds weakly | GST-PHD-NLSR (domain or fragment, UniProt Q9Y2K7 619-733) TCSLCGEVDQNEETQDFEKKLMECCICNEIVHPGCLQMDGEGLLNEELPNCWECPKCYQEDSSEKAQKRKMEESDEEAVQAKVLRPLRSCDEPLTPPPHSPTSMLQLIHDPVSPR

The next lines start with the binder.

Binder | binding [1] | binding [2]
GST-NLSR (domain or fragment, UniProt Q9Y2K7 676-733) YQEDSSEKAQKRKMEESDEEAVQAKVLRPLRSCDEPLTPPPHSPTSMLQLIHDPVSPR | no binding | 
GST-CXXC-NLSR (domain or fragment, UniProt Q9Y2K7 561-619; Q9Y2K7 676-733) VSGARRRRVRCRKCKACVQGECGVCHYCRDMKKFGGPGRMKQSCVLRQCLAPRLPHSVTYQEDSSEKAQKRKMEESDEEAVQAKVLRPLRSCDEPLTPPPHSPTSMLQLIHDPVSPR | binds | binds weakly
